Experimental data as given in PubChem BioAssay AID488969 (Vanderbilt High Throughput Screening Facility, 2010).
Over roughly 110,000 compounds, “z-score” has its median near -0.1; the highest 2% begin near 2. This is one part of the list.

Biological target: Metabotropic glutamate receptor 8 (Rattus norvegicus) (UniProt P70579)
Assay: mGluR8 Gi/Go-coupled signaling modulation – cell-based, rat, thallium flux, HTS, primary screen (AID 488969)
Details: HEK293 rat mGluR8, GIRK (G protein-gated inwardly rectifying potassium channel) thallium flux, FluoZin2; at 10 µM; stronger effect = higher value; submaximal glutamate (EC20) added with thallium

Chain of UniProt P70579 (P70579 whole entry, looked up): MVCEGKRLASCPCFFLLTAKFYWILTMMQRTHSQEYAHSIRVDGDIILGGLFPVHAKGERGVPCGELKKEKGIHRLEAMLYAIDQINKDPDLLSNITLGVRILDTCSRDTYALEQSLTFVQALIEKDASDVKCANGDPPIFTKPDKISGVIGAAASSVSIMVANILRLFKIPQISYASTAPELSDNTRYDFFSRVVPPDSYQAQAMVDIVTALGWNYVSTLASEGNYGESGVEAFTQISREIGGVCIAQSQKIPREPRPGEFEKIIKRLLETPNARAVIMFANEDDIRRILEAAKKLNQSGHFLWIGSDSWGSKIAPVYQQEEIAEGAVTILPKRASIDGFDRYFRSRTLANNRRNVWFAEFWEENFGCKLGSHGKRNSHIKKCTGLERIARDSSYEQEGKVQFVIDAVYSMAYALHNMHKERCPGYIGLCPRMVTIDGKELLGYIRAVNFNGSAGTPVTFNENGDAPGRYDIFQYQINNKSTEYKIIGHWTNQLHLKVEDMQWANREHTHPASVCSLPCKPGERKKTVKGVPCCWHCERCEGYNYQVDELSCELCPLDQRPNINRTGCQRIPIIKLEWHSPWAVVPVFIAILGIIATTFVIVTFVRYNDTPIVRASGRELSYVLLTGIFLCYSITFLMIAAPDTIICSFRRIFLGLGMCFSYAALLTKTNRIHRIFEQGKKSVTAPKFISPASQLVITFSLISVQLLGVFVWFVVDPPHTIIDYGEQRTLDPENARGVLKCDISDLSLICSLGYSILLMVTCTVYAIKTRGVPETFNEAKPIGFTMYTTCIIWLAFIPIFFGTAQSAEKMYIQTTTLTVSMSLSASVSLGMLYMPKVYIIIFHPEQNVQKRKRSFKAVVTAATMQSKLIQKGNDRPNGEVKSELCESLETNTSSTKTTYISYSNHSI

Going from `COc1ccc(C2(CNC(=O)c3ccc(Br)o3)CCOCC2)cc1` to `COc1ccc(CNC(=O)C2CC(C)=C(C)CC2C(=O)O)cc1` (stereo not drawn), the z-score rises from 0.228 to 0.845.

First: c1ccc(C2=NNC(=NC3CC3)SC2)cc1
Second: c1ccc(C2=Nn3c(nnc3-c3cccnc3)SC2)cc1
The z-score of the first is higher: -0.0566 for the first, -0.24 for the second.

Compared with `CC1(C)CC(=O)C2=C(C1)NC(=O)CC2c1ccc(F)cc1` (stereo not drawn), `CCC1Oc2ccc(C)cc2N(CC(=O)N2CCN(c3ccc(F)cc3)CC2)C1=O` (stereo not drawn) is higher in z-score: -0.481 for the first, -0.325 for the second.

Going from `O=C1C=C(Nc2ccc(Cl)cc2)CC(c2ccco2)C1` (stereo not drawn) to `O=C(CN(Cc1ccco1)C(=O)c1ccc(Cl)cc1)Nc1ccc(Cl)c(Cl)c1`, the z-score rises from -0.447 to -0.0983.

Compared with `COC(=O)C1=C(C)N(c2ccc(Cl)c(Cl)c2)C(=O)C1`, `COC(=O)c1ccc(NC2CC(=O)N(c3ccccc3C)C2=O)cc1` (stereo not drawn) is higher in z-score: 0.13 for the first, 0.283 for the second.

First: NC(N)=Nc1nc(CCN2C(=O)c3ccccc3C2=O)cs1
Second: COc1ccc(CCNC(=O)CCCCCN2C(=O)c3ccccc3C2=O)cc1OC
The z-score of the first is higher: 0.391 for the first, 0.301 for the second.

First: Cc1ccc(CS(=O)(=O)CCC(=O)NCc2ccccn2)cc1
Second: Cc1nc(CC(=O)NNS(=O)(=O)c2ccc3ccccc3c2)cs1
The z-score of the first is higher: 0.395 for the first, 0.0826 for the second.

Compared with `Cc1ccc(/C=C2\SC(=S)N(Cc3ccccc3)C2=O)o1`, `Cc1c(C=O)c2ccccc2n1CC(=O)N1CCc2ccccc2C1` is lower in z-score: 0.217 for the first, -0.384 for the second.

Compared with `CCn1c(COc2ccc(Cl)cc2)nnc1SCC(=O)Nc1ccc2c(c1)OCO2`, `CCn1c(SCC(=O)Nc2nnc(C)s2)nnc1-c1ccncc1` is higher in z-score: -1.3 for the first, -0.0598 for the second.

Compared with `O=C(O)CCc1ccc(-c2ccc(Cl)cc2)n1CCC(=O)O`, `COc1ccc(-c2ccc(CCC(=O)O)n2CC(C)C)cc1` is higher in z-score: 0.137 for the first, 0.382 for the second.

First: Cc1ccc(N2CC(c3nc4ccccc4n3C)CC2=O)cc1C (stereo not drawn)
Second: Cn1c(/N=C/c2cccs2)nc2ccccc21
The z-score of the first is higher: -0.315 for the first, -0.613 for the second.

First: C=CCSc1ncc(C#N)c(N)n1
Second: CN(C)c1nc(SCC#N)nc(N2CCOCC2)n1
The z-score of the first is lower: -0.187 for the first, 0.0471 for the second.

First: O=C(O)CCCC(=O)NCCCCc1ccccc1
Second: Cc1sc(NC(=O)CCC(=O)O)c(C(N)=O)c1-c1ccccc1
The z-score of the first is higher: 0.0123 for the first, -0.002 for the second.

Going from `Cc1ccc2nsnc2c1S(=O)(=O)N(Cc1ccco1)Cc1cc2cccc(C)c2[nH]c1=O` to `Cc1cc2cc(CN(Cc3cccs3)C(=S)NCc3ccco3)c(=O)[nH]c2cc1C`, the z-score rises from 0.0349 to 0.105.

Compared with `CC(C(=O)Nc1ccccc1C(=O)N1CCCC1)n1nnc2ccccc21` (stereo not drawn), `COc1ccccc1CN(C(=O)CCl)C(C(=O)NC1CCCCC1)c1ccncc1` (stereo not drawn) is lower in z-score: 0.0702 for the first, -0.106 for the second.

Compared with `Cc1ccc(/C(COc2ccccc2O)=N\O)cc1`, `C/C(=N\NC(=O)c1ccc(Br)cc1)C1C(=O)c2ccccc2C1=O` is lower in z-score: 0.516 for the first, -0.301 for the second.

Going from `CC(C)CCNC(=O)CNC(=S)N(CCCN1CCOCC1)Cc1cccs1` to `Cc1oc(-c2ccc(Cl)cc2)nc1CS(=O)CC(=O)NCCN1CCCC1` (stereo not drawn), the z-score rises from 0.225 to 0.358.

Going from `Nc1cccnc1Sc1cc(Cl)cc(Cl)c1` to `Cc1cccnc1NS(=O)(=O)c1cccc([N+](=O)[O-])c1`, the z-score rises from -0.059 to 0.034.

First: COc1cccc(NC(=O)N(C2CCCCC2)C(C)c2cccs2)c1 (stereo not drawn)
Second: COc1ccc(NC(=O)O/N=C2/CCCc3ccc(OC)cc32)cc1
The z-score of the first is higher: -0.017 for the first, -0.131 for the second.

Compared with `CCCC(=O)Nc1ccc(NC(=O)c2ccco2)cn1`, `COC(=O)c1c(NC(=O)c2ccco2)sc(C)c1C` is lower in z-score: 1.89 for the first, 0.752 for the second.

Compared with `O=C(NC(NC(=S)Nc1ccccc1)C(Cl)(Cl)Cl)c1cccc(Cl)c1` (stereo not drawn), `CC(C)(C)N(NC(=O)Nc1ccc(F)cc1)C(=O)c1ccccc1` is lower in z-score: 1.95 for the first, 0.955 for the second.

Going from `Nc1nnc(SCC(=O)N2CCc3ccccc32)n1-c1ccccc1` to `Cc1c(C(N)=O)c(-c2ccccc2)nn1-c1ccccc1`, the z-score falls from -0.0448 to -0.0667.

Compared with `Nc1nc(CN2CCC(Cc3ccccc3)CC2)nc(Nc2ccccc2)n1`, `CCOc1ccc(C(c2nnnn2Cc2ccccc2)N2CCN(C(=O)c3ccco3)CC2)cc1` (stereo not drawn) is lower in z-score: 2.39 for the first, -0.338 for the second.

Going from `O=C(COc1cccc2cccnc12)N1CCc2ccccc2C1` to `O=C(CCN1C(=O)COc2ccccc21)N1CCN(c2ccccn2)CC1`, the z-score falls from 0.452 to 0.258.

First: CCCCCOc1ccc(Br)cc1/C(C)=N/NC1=NCCN1
Second: COc1ccc(OC)c(Nc2ncnc3ccccc23)c1
The z-score of the first is higher: 1.05 for the first, -0.375 for the second.

First: CS(=O)(=O)Nc1nnc(Cc2ccccc2)s1
Second: c1ccc(CSc2nnc(Cc3ccccn3)o2)cc1
The z-score of the first is lower: -0.552 for the first, 0.201 for the second.

First: Cc1cccc(-n2c(SCC(=O)Nc3ncc(Cl)cc3Cl)nc3ccccc32)c1
Second: Cc1c(NC(=O)/C(C#N)=C/c2ccc(-c3ccc(Cl)c(Cl)c3)o2)c(=O)n(-c2ccccc2)n1C
The z-score of the first is lower: -0.585 for the first, 0.0364 for the second.

First: O=C1C2C3C=CC([C@@H]2C(=O)N1c1nccs1)C31CC1 (stereo partly drawn)
Second: CC(=O)c1nc(N2C(=O)C3CC=C(C)CC3C2=O)sc1C (stereo not drawn)
The z-score of the first is higher: -0.0608 for the first, -0.425 for the second.

Going from `CCOC(=O)CCP(=O)(O)C(C)(O)c1ccccc1` (stereo not drawn) to `CCOC(=O)C1=C(c2ccccc2)NC(=S)NC1c1ccc(C)c([N+](=O)[O-])c1` (stereo not drawn), the z-score falls from 0.0487 to -0.641.

Going from `O=C(Nc1nnc(C2CC2)o1)c1ccc(S(=O)(=O)N2CCCc3ccccc32)cc1` to `CC(=O)N1CCCc2cc(S(=O)(=O)N(C)Cc3ccccc3)ccc21`, the z-score falls from 1.85 to 0.884.

Going from `COC(=O)c1ccc(N2CCCCC2)c(NS(=O)(=O)c2ccc(C)cc2)c1` to `O=S(=O)(Nc1ccc2c3c(cccc13)CC2)c1ccc(F)cc1`, the z-score falls from -0.0153 to -0.364.

Compared with `COc1ccc(C2c3c(-c4ccccc4O)n[nH]c3C(=O)N2CCc2ccc(OC)c(OC)c2)cc1` (stereo not drawn), `COc1ccc(-c2cc(C(=O)N/N=C/c3ccc(OC)c(COCC(F)(F)C(F)F)c3)c3ccccc3n2)c(OC)c1` is lower in z-score: 0.745 for the first, -0.0594 for the second.

First: COc1cccc2cc(-c3cn4cccc(C)c4n3)c(=O)oc12
Second: COc1ccccc1N1CCN(c2nc3c(C)cccn3c(=O)c2C=O)CC1
The z-score of the first is lower: -0.32 for the first, -0.237 for the second.

First: O=Cc1ccc(N2CCCC2)c(F)c1
Second: Cc1ccc2c(c1)c1c3n2CCN(C(=O)C2CC2)C3CCC1 (stereo not drawn)
The z-score of the first is higher: 0.126 for the first, 0.0306 for the second.

Compared with `O=C(O)c1ccc2c(c1)ncn2C1CCCCCC1`, `O=CN1CCN(C(C(=O)NC2CCCC2)c2ccc(Cl)cc2)CC1` (stereo not drawn) is lower in z-score: 0.321 for the first, 0.0147 for the second.

Compared with `O=[N+]([O-])c1ccccc1NCCNc1ncc(C(F)(F)F)cc1Cl`, `CC(=O)OCc1c(C(F)(F)F)nn(C)c1SCc1ccc(Cl)cc1` is lower in z-score: -0.0374 for the first, -1.09 for the second.

Going from `CCCCn1c(-c2nn(C)cc2Cl)n[nH]c1=S` to `C=CCn1c(C)cc(C(=O)Cn2ncc(Cl)c(Cl)c2=O)c1C`, the z-score falls from -0.937 to -0.975.

First: COc1ccccc1N(C(=O)NCc1ccccc1)C1=NCC(C)S1 (stereo not drawn)
Second: O=C1COc2ccc(C(=O)c3ccccc3C(=O)NCc3ccccc3)cc2N1
The z-score of the first is lower: -0.982 for the first, -0.231 for the second.

Compared with `O=C1CCC(=O)N1c1cccc(-c2nc3ccccc3o2)c1`, `Cn1c(=O)oc2cc(S(=O)(=O)N3CCN(c4ccccc4)CC3)ccc21` is higher in z-score: -0.545 for the first, 0.317 for the second.

Going from `COc1ccc(Nc2nnc(SCc3cc(=O)n4ccsc4n3)s2)cc1` to `CCOC(=O)c1c(-c2ccc(OC)cc2)nc2nonc2c1N`, the z-score rises from -0.097 to 0.0715.

Going from `O=C(N/N=C/c1c(Cl)cccc1Cl)c1ccc(F)cc1` to `CC1=C/C(=N\NC(=O)c2ccc(O)cc2)CC1`, the z-score rises from -0.476 to -0.282.

First: CCCC(c1nnnn1C1CCCC1)N1CCN(C(=O)c2ccco2)CC1 (stereo not drawn)
Second: Cc1nnc2n(C3CCCCC3)c(=O)c3c4c(sc3n12)CCC4
The z-score of the first is higher: -0.111 for the first, -0.862 for the second.

Compared with `CC1CCCCC1N=CC1=C(O)CC(C)(C)CC1=O` (stereo not drawn), `CSc1nsc(SC)c1NC(=O)OC1CCCCC1` is lower in z-score: 0.463 for the first, -0.15 for the second.

Compared with `CCN(CC)c1ccc(NS(=O)(=O)c2ccc3c(c2)oc(=O)n3C)c(C)c1`, `CCN(c1ccccc1)S(=O)(=O)c1ccc(Cl)c(NC(=O)COC(=O)c2ccc(Cl)c(N)c2)c1` is lower in z-score: 0.308 for the first, -0.0954 for the second.

First: CCCCOC(=O)Nc1nc(CC(=O)OCC)cs1
Second: COc1ccc2c(CC(=O)OCC(=O)Nc3cc(C)c(C)cc3[N+](=O)[O-])coc2c1
The z-score of the first is higher: 0.0147 for the first, -0.287 for the second.

Compared with `CCc1cc2cc(C)ccc2nc1SCC(=O)Nc1cc(C)on1`, `CCOC(=O)C1=NN(c2ccccc2C)C2=NC(C)=C(C(=O)OC)C(c3cccs3)N12` (stereo not drawn) is lower in z-score: 0.28 for the first, -0.355 for the second.

Going from `CCOC(=O)CN1NC2(CCC(C(C)(C)C)CC2)NC1=S` (stereo not drawn) to `COc1ccc(C(=O)CSC2=C(C#N)C3(CCCCC3)C(C#N)=C(N)N2)cc1`, the z-score falls from 2.66 to -0.63.

Going from `Cc1ccccc1NC(=O)C(C#N)Cc1cccnc1` (stereo not drawn) to `Cc1[nH]c2ccccc2c1C(=O)/C=C\c1ccccc1Cl`, the z-score falls from 2.26 to -0.115.

Compared with `CC(=O)Nc1ccc(C(=O)NC(CC(=O)O)c2ccc(Cl)cc2)cc1` (stereo not drawn), `O=C(/C(=C/c1ccc(Cl)cc1)c1nc2ccccc2[nH]1)c1ccccc1` is lower in z-score: -0.216 for the first, -0.287 for the second.

Compared with `O=C(COc1ccc(/C=N/NS(=O)(=O)c2ccccc2)cc1)NCc1ccccc1`, `CN(C)S(=O)(=O)c1ccc(NC(=O)CN2CCN(C(c3ccccc3)c3ccccc3)CC2)cc1` is lower in z-score: -0.192 for the first, -0.193 for the second.

Going from `COc1ccc(NC(=O)CN2C(=O)CSC(C)C2=O)c(OC)c1` (stereo not drawn) to `COc1ccc(C2CC(C(F)(F)F)n3nc(CO)c(Cl)c3N2)cc1OC` (stereo not drawn), the z-score rises from -0.219 to 0.545.

Compared with `COc1ccc(-c2nc(C3CCCCC3)no2)cc1OC`, `COc1cc(/C=C(\C#N)C(=O)NCC2CCCO2)ccc1O` (stereo not drawn) is lower in z-score: 0.462 for the first, 0.279 for the second.

First: OCCNc1nc2ccccc2n1-c1ncnc2sc3c(c12)CCC3
Second: CNC(=O)c1c(N)sc2c1CCCCC2
The z-score of the first is higher: 0.385 for the first, 0.209 for the second.

First: O=C(Oc1oc(-c2ccco2)nc1C=Nc1ccc(Cl)cc1)c1ccco1
Second: COc1ccc(/C=N/n2cncn2)cc1CSc1ccccn1
The z-score of the first is higher: -0.0203 for the first, -0.583 for the second.

Going from `Cc1ccc(OCC(=O)NNC(=O)C(=O)NC(C)(C)C)cc1` to `O=C(NC1CCCCC1)C1CN(S(=O)(=O)c2ccccc2)CCN1S(=O)(=O)c1ccccc1` (stereo not drawn), the z-score falls from 2.61 to -0.0054.

Compared with `Cc1ncsc1C(=O)N1N=C2/C(=C/c3ccc(N4CCOCC4)cc3)CCCC2C1c1ccc(N2CCOCC2)cc1` (stereo not drawn), `O=C(Nc1cccc(Cl)c1)C1C2CCC3C(CCC21)C3(Cl)Cl` (stereo not drawn) is higher in z-score: -0.0668 for the first, 0.00472 for the second.

For `NC(=O)N/N=C\c1cc(Br)ccc1O`, the z-score was -0.265.
